Data reported in the supplement of paper PMC4723716.
± gives the uncertainty stated by the source. Whole data set: some 9,900 compounds, median “viability index relative to DMSO control” near 1, cut for the lowest 2% near 0.85. The list shows a part of the results.

test system: Plasmodium falciparum NF54 stage V gametocytes; assay: viability index relative to DMSO control (fraction); higher = less gametocyte killing; settings: 2.5 µM, library set: Broad Institute DOS, incubation time: 72 h
Summary of the method: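 P. falciparum NF54 stage V gametocytes in serum-free screening medium (0.75% gametocytemia, 1.25% hematocrit, 10 µl) were incubated with compound at 2.5 µM in 1,536-well plates for 72 hr at 37°C under low oxygen. Then 3 µl of 2.5 µM MitoTracker Red CMXRos plus 0.13% saponin was added for one to two hours. One field per well was imaged, 20–70 µm2 red particles were counted, and the viability index was the count divided by the plate mean of DMSO wells.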

Row | SMILES | viability index
1 | COc1ccc(S(=O)(=O)Nc2ccc3c(c2)C(=O)N([C@@H](C)CO)C[C@@H](C)[C@@H](CN(C)C(=O)Nc2c(C)noc2C)OCCCC[C@H](C)O3)cc1 | 1.05 ± 0.077
2 | C[C@@H]1CCCCO[C@@H](CN(C)Cc2ccc3c(c2)OCO3)[C@H](C)CN([C@@H](C)CO)C(=O)c2cc(NS(=O)(=O)c3cn(C)cn3)ccc2O1 | 1.053 ± 0.0087
3 | CCC(=O)N1[C@@H](C#N)[C@@H](c2ccccc2-c2ccccc2)[C@@H]1CO | 1.04 ± 0.058
4 | CC(C)CC#Cc1ccc([C@H]2[C@@H](CO)N3C(=O)CN(C(=O)Nc4cc(F)ccc4F)C[C@@H]23)cc1 | 1.01 ± 0.016
5 | N#C[C@H]1[C@H](c2ccccc2C2=CCCC2)[C@@H](CO)N1C(=O)Cc1ccncc1 | 1.03 ± 0.072
6 | O=C(C1CCOCC1)N1CC(=O)N2[C@H](CO)[C@H](c3ccc(C#CC4CCCCC4)cc3)[C@H]2C1 | 1.09 ± 0.052
7 | COc1ccc2c3c([C@@H](CO)N(CC4CC4)C[C@]33CCN(CC3)C(=O)c3cccc(F)c3)n(C)c2c1 | 1.02 ± 0.16
8 | COCCNC(=O)C[C@H]1CC[C@@H]2[C@H](COC[C@H](O)CN2C(=O)c2cc(Cl)cc(Cl)c2)O1 | 0.981 ± 0.099
9 | COCC(=O)N1C[C@@H](C)[C@@H](OC)CN(C)C(=O)c2ccc(NC(=O)Nc3cccc(F)c3)cc2OC[C@H]1C | 0.976 ± 0.11
10 | O=C(C[C@H]1CC[C@@H]2[C@H](COC[C@@H](O)CN2Cc2cc(F)ccc2F)O1)NCc1ccc(Oc2ccccc2)cc1 | 1.1 ± 0.024
11 | O=S(=O)(c1ccccc1)N1CC2(C1)[C@@H](c1ccccc1)[C@@H](CO)N2CC1CCOCC1 | 1.13 ± 0.065
12 | C[C@@H]1CN([C@@H](C)CO)C(=O)CCCn2nncc2CO[C@H]1CN(C)S(=O)(=O)c1ccc2c(c1)OCCCO2 | 0.9817 ± 0.0089
13 | O=C(C[C@@H]1CC[C@@H]2[C@H](COC[C@@H](O)CN2S(=O)(=O)c2ccc(F)cc2)O1)NCCN1CCCCC1 | 1.06 ± 0.017
14 | C[C@H]1CCCCO[C@H](CN(C)C(=O)CCCN(C)C)[C@@H](C)CN([C@@H](C)CO)C(=O)c2cc(NC(=O)Nc3ccc4c(c3)OCO4)ccc2O1 | 1.12 ± 0.12
15 | Cc1noc(C)c1NC(=O)Nc1ccc2c(c1)CC(=O)N([C@H](C)CO)C[C@@H](C)[C@@H](CN(C)Cc1ccc(C(F)(F)F)cc1)O2 | 1.02 ± 0.012
16 | O=C(C[C@H]1CC[C@H]2NC[C@H](O)COC[C@@H]2O1)Nc1nccs1 | 1.048 ± 0.0082
17 | C[C@@H]1CN([C@H](C)CO)C(=O)c2cccc(NS(=O)(=O)c3ccc(F)cc3)c2O[C@@H]1CN(C)Cc1ccc(Cl)c(Cl)c1 | 0.94 ± 0.078
18 | CN1C(=O)c2cc(NC(=O)c3cccc(F)c3)ccc2OC[C@H]2O[C@H](CC(=O)NCc3ccccc3Cl)CC[C@H]21 | 1.09 ± 0.091
19 | O=C(c1ccc2c(c1)OCO2)N1C[C@@H]2N[C@H](C1)[C@@H]2c1ccc(-c2cncnc2)cc1 | 1.08 ± 0.035
20 | COc1cccc(NC(=O)Nc2ccc3c(c2)C(=O)N(C)C[C@H](OC)[C@H](C)CN(CC2CC2)[C@H](C)CO3)c1 | 0.983 ± 0.021
21 | C[C@@H]1CN([C@@H](C)CO)C(=O)c2c(c3ccccc3n2C)-c2ccccc2CO[C@H]1CN(C)S(=O)(=O)c1ccc([N+](=O)[O-])cc1 | 0.93 ± 0.086
22 | COc1cccc(C(=O)Nc2ccc3c(c2)C(=O)N(C)[C@@H]2CC[C@@H](CC(=O)N[C@@H](C)c4ccccc4)O[C@H]2CO3)c1 | 1.1 ± 0.086

Row | SMILES | viability index
23 | O=C(Nc1ccccc1)N1CC(=O)N2[C@H](CO)[C@H](c3ccc(C#CC4CCCCC4)cc3)[C@H]2C1 | 0.994 ± 0.049
24 | COc1ccc2c3c([nH]c2c1)[C@@H](CO)N(Cc1cccnc1)C[C@]31CCN(CC1)C(=O)CN(C)C | 0.959 ± 0.081
25 | Cc1noc(C)c1NC(=O)N(C)C[C@@H]1Oc2ccc(NC(=O)CCCN(C)C)cc2C(=O)N([C@@H](C)CO)C[C@H]1C | 0.914 ± 0.12
26 | O=S(=O)(Cc1ccccc1)N1[C@H](CO)[C@@H](c2ccccc2)C12CN(CCC(F)(F)F)C2 | 1.14 ± 0.014
27 | CCOC(=O)c1cc2c(c(-c3cccc(C#CCN(C)C)c3)n1)[C@@H](CCO)N(S(=O)C(C)(C)C)C2 (stereo partly drawn) | 0.9917 ± 0.0018
28 | N#C[C@H]1[C@H](c2ccccc2-c2ccc(F)cc2)[C@@H](CO)N1C(=O)Cc1cccnc1 | 1.13 ± 0.083
29 | O=C(C[C@H]1CC[C@@H]2[C@H](COC[C@H](O)CN2CC2CCOCC2)O1)NCC1CCCCC1 | 1.11 ± 0.067
30 | COc1cccc(-c2ccc([C@@H]3[C@@H](C#N)N(C(=O)Cc4ccncc4)[C@@H]3CO)cc2)c1 | 0.927 ± 0.055
31 | C[C@@H]1CN([C@H](C)CO)C(=O)c2cc(-c3cccc(C#N)c3)cnc2O[C@@H]1CN(C)C(=O)C1CCOCC1 | 1.04 ± 0.017
32 | O=C(C[C@H]1CC[C@@H]2[C@H](COC[C@H](O)CN2Cc2cc(F)ccc2F)O1)NCc1ccc(Oc2ccccc2)cc1 | 1.02 ± 0.028
33 | COc1ccccc1NC(=O)N1CC(=O)N2[C@H](CO)[C@@H](c3ccc(C#CC(C)C)cc3)[C@H]2C1 | 0.997 ± 0.013
34 | CS(=O)(=O)Nc1ccc2c(c1)[C@@H]1C[C@@H](CC(=O)NCc3cc(F)ccc3F)O[C@H](CO)[C@@H]1O2 | 1.05 ± 0.0071
35 | CCS(=O)(=O)Nc1ccc2c(c1)C(=O)N(C)C[C@@H](OC)[C@@H](C)CN(CC1CCCCC1)[C@H](C)CO2 | 1.05 ± 0.016
36 | O=C(O)C[C@@H]1CC[C@@H]2[C@H](COC[C@@H](O)CN2S(=O)(=O)c2ccc(Oc3ccccc3)cc2)O1 | 1.05 ± 0.026
37 | COc1cccc(NC(=O)Nc2ccc3c(c2)C(=O)N(C)C[C@H](OC)[C@H](C)CN[C@H](C)CO3)c1 | 1.03 ± 0.07
38 | CN1c2ccc(-c3ccc(F)cc3)cc2[C@H]2[C@H](CCN2C(=O)Cc2cccnc2)[C@@H]1CO | 1.099 ± 0.0022
39 | C[C@H]1CCCCO[C@H](CN(C)C(=O)C2CCCCC2)[C@@H](C)CN([C@@H](C)CO)C(=O)c2cc(NS(=O)(=O)c3ccccc3)ccc2O1 | 0.988 ± 0.11
40 | CCCNC(=O)C[C@H]1CC[C@H]2[C@@H](COC[C@@H](O)CN2C(=O)c2ccc(F)cc2)O1 | 1.02 ± 0.011
41 | COc1cccc(-c2ccc3c(c2)[C@@H]2[C@@H](CCN2C(=O)c2ccccc2F)[C@@H](CO)N3C)c1 | 0.921 ± 0.029
42 | COc1ccccc1-c1ccc([C@@H]2[C@H]3CNC[C@@H]2N3S(=O)(=O)c2ccc(F)cc2)cc1 | 1.08 ± 0.095
43 | O=C1N[C@H](c2ccccc2)COCc2cn(nn2)CC[C@@H]1Cc1cccc(Cl)c1 | 1.05 ± 0.057
